Measured values as given in US20090258363.

What was measured:
[1] = target: 5-9D zinc finger/FokI fusion protein, wild-type FokI cleavage half-domain, P14870
[2] = target: 5-10 (E490K) mutant ZFP/FokI fusion protein
[3] = target: 5-10 ZFP/FokI fusion protein (wild-type FokI cleavage half-domain)
[4] = target: 5-9D zinc finger/FokI fusion protein, Q486E cleavage half-domain, P14870

B1: 5-8G zinc finger/FokI fusion protein, wild-type FokI cleavage half-domain (protein)
chain: MAERPFQCRICMRNFSRSDNLSVHIRTHTGEKPFACDICGRKFARNAHRINHTKIHTGSQKPFQCRICMRNFSRSDTLSEHIRTHTGEKPFACDICGRKFAARSTRTNHTKIHLRGSQLVKSELEEKKSELRHKLKYVPHEYIELIEIARNSTQDRILEMKVMEFFMKVYGYRGKHLGGSRKPDGAIYTVGSPIDYGVIVDTKAYSGGYNLPIGQADEMQRYVEENQTRNKHINPNEWWKVYPSSVTEFKFLFVSGHFKGNYKAQLTRLNHITNCNGAVLSVEELLIGGEMIKAGTLTLEEVRRKFNNGEINF
What does the source list for B1?
% GC (fraction of amplification product cleaved by BsrBI), 1 ug of each plasmid [1]: 2.6%; % GC (fraction of amplification product cleaved by BsrBI), 2.5 ug of each plasmid [1]: < 1%; % GC (fraction of amplification product cleaved by BsrBI), 5 ug of each plasmid [1]: 1.5%; % GC (fraction of amplification product cleaved by BsrBI), 7.5 ug of each plasmid [1]: < 1%

B2: 5-8 ZFP/FokI fusion protein (wild-type FokI cleavage half-domain) (protein)
chain: MAPKKKRKVGIHGVPAAMAERPFQCRICMRNFSRSDNLSEHIRTHTGEKPFACDICGRKFARNAHRINHTKIHTGSQKPFQCRICMRNFSRSDTLSEHIRTHTGEKPFACDICGRKFAARSTRTTHTKIHLRQKDAARGSQLVKSELEEKKSELRHKLKYVPHEYIELIEIARNSTQDRILEMKVMEFFMKVYGYRGKHLGGSRKPDGAIYTVGSPIDYGVIVDTKAYSGGYNLPIGQADEMQRYVEENQTRNKHINPNEWWKVYPSSVTEFKFLFVSGHFKGNYKAQLTRLNHITNCNGAVLSVEELLIGGEMIKAGTLTLEEVRRKFNNGEINF
For B2, which “DNA cleavage (in vitro, labeled ~400 bp substrate)” value [2] is on record?
The value was “Specific”.

And the “DNA cleavage (in vitro, labeled ~400 bp substrate)” value [3]?
Its value is “Specific”.

B3: 5-8G zinc finger/FokI fusion protein, Q486E cleavage half-domain (protein)
chain: B1 chain with Q220E
Which % GC (fraction of amplification product cleaved by BsrBI), 5 ug of each plasmid [4] does the source give for B3 here?
The % GC (fraction of amplification product cleaved by BsrBI), 5 ug of each plasmid was 2.3%.

B4: 5-10 ZFP/FokI fusion protein (wild-type FokI cleavage half-domain) (protein)
chain: MAPKKKRKVGIHGVPAAMAERPFQCRICMRNFSRSDSLSRHIRTHTGEKPFACDICGRKFADSSNRKTHTKIHTGGGGSQKPFQCRICMRNFSRSDSLSVHIRTHTGEKPFACDICGRKFADRSNRITHTKIHLRQKDAARGSQLVKSELEEKKSELRHKLKYVPHEYIELIEIARNSTQDRILEMKVMEFFMKVYGYRGKHLGGSRKPDGAIYTVGSPIDYGVIVDTKAYSGGYNLPIGQADEMQRYVEENQTRNKHINPNEWWKVYPSSVTEFKFLFVSGHFKGNYKAQLTRLNHITNCNGAVLSVEELLIGGEMIKAGTLTLEEVRRKFNNGEINF
With B4 as the protein, how does the “DNA cleavage (in vitro, labeled ~400 bp substrate), 5-8 not present” value read?
The value was “Non-specific”.

Where a chain is given by its changes, count along the chain named. In names and notes the source's numbering stands.
